# From PubChem BioAssay AID686979 (National Center for Advancing Translational Sciences (NCATS), 2013)
# The whole screen tested about 420,000 compounds, of which about 50,000 (12%) were called active. The shares of active, inactive and inconclusive entries below differ from those in the screen. Calls follow the shape of the dose curve; as a rule, active = well fitted inhibition curve with a large enough effect; inconclusive = small, poorly fitted or top-dose-only effect; inactive = flat fitted curve, though single readings scatter. Potencies of inconclusive entries are left out as doubtful fits.
# Test: qHTS for Inhibitors of human tyrosyl-DNA phosphodiesterase 1 (TDP1): qHTS in cells in presence of CPT; also: nearly all actives have a fitted effect of over 55% in size
# Conditions: chicken DT40 Tdp1-/-;hTDP1 cells + 20 nM CPT, ATP luminescence, 48 h; activity change, negative = growth inhibition: at 46.2 µM (top of the series) unless noted
# Method in brief: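 Chicken DT40 Tdp1-/- cells complemented with human TDP1, 400 cells/well, exposed to compounds plus 20 nM camptothecin for at least 48 h at 37 C; viability read as ATP content by CellTiter-Glo luminescence.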
# % is scaled to controls: 0 for no effect and ±100 for the full control effect; potency is read from the fitted curve at half-maximal effect; tags tell the direction and shape of the fitted curve.
Compound,Potency,"activity change, negative = growth inhibition"
N#CC(C#N)=NNc1ccc(OC(F)(F)F)cc1,active: 1.12 µM,
O=[N+]([O-])c1cc(S(=O)(=O)/N=C(/c2ccccc2)N2CCOCC2)ccc1Cl,"inconclusive [inhibitor, single point]",
CCOP1(=S)Oc2cc3c(cc2C(C(=O)OC)(C(F)(F)F)O1)OCO3 (stereo not drawn),active: 13 µM,
O=C(Nc1ccc(Cl)c(Cl)c1)O/N=C/c1ccncc1,"inconclusive [inhibitor, single point]",
CC(C)(O)/C=C/C(=O)[C@](C)(O)C1[C@H](O)C[C@@]2(C)C3CC=C4C(C=C(O[C@@H]5O[C@H](CO)[C@@H](O)[C@H](O)[C@H]5O)C(=O)C4(C)C)[C@]3(C)C(=O)C[C@]12C (stereo partly drawn),"inconclusive [inhibitor, partial curve, poor fit]",
Cc1ccc(NC(=O)c2cc(-c3cc(Cl)ccc3C)n[nH]2)cc1NS(C)(=O)=O,active: 23.1 µM,
O=C(NC(=O)c1c(F)cccc1F)Nc1ccc(Cl)c(Oc2ncc(C(F)(F)F)cc2Cl)c1,,inactive: 9.66%
CCN(CC)CCCOC(=O)C(OC(C)C)(c1ccccc1)c1ccccc1,active: 23.1 µM,
CC(=O)OC1C2CCC3C1(CC(O)[C@@]1(O)[C@@H](CC(O)C1(C)C)[C@]3(C)O)C[C@@]2(C)O (stereo partly drawn),,inactive: 7.13%
c1ccc(CN2CCc3nc4ccccc4cc3C2)cc1,"inconclusive [inhibitor, single point]",
C[C@@H]1CN([C@@H](C)CO)C(=O)c2c(c3ccccc3n2C)-c2ccccc2CO[C@H]1CN(C)C(=O)[C@H](C)c1ccccc1,active: 16.4 µM,
COc1ccccc1OCCCn1cc(C(=O)C2CC2)c2ccccc21,"inconclusive [inhibitor, single point]",
O=C1NCCCCC1(Cl)Cl,,inactive: -4.28%
COc1ccc(C(=O)N2CCOCC2)cc1S(=O)(=O)N1CCC(C)CC1,,inactive: -2.93%
COc1c(C)cc(C(=O)C2CCCN(Cc3cnc(C)s3)C2)cc1C (stereo not drawn),"inconclusive [inhibitor, partial curve, poor fit]",
c1ccc2c(CCNC3CCCCC3)c[nH]c2c1,"inconclusive [inhibitor, single point]",
CCc1cccc(NC(=O)Cn2c(=O)oc3cc(S(=O)(=O)N4CCOCC4)ccc32)c1,active: 23.1 µM,
COc1ccc(C(c2nnnn2C(C)(C)C)N2CCC3(CC2)C(=O)NCN3c2ccccc2)cc1 (stereo not drawn),"inconclusive [inhibitor, single point]",
c1ccc(OCCSc2nc3ccccc3[nH]2)cc1,"inconclusive [inhibitor, single point]",
CCCCCn1c(=O)c(C(=O)NC(C)c2ccccc2)c(O)c2ccccc21 (stereo not drawn),"inconclusive [inhibitor, single point]",
Cc1ccccc1Cn1cccc(C(=O)Nc2nc3ccccc3s2)c1=O,active: 16.4 µM,
Clc1ccc2c(c1)C(c1ccccc1Cl)=NCc1nnc(N3CCN(CCOc4ccccc4)CC3)n1-2,active: 20.6 µM,

Compound,Potency,"activity change, negative = growth inhibition"
CCOC(=O)Cn1cc(C(=O)c2ccccc2)c2ccccc21,,inactive: 3.13%
Cn1cc(NC(=O)CCl)cn1,"inconclusive [inhibitor, partial curve]",
Nc1ccccc1C(=O)OCCc1ccccc1,"inconclusive [inhibitor, single point]",
O=C(c1ccccc1F)c1cn(CC(=O)N2CCCC2)c2ccccc12,"inconclusive [inhibitor, single point]",
O=C1NC(=O)C(CCc2ccncc2)(CCc2ccccn2)C(=O)N1c1ccc(Br)cc1 (stereo not drawn),active: 10.3 µM,
C=C1C([C@@H](O)C[C@H](C)C2O[C@@]3(CCCCO3)CC[C@H]2C)OC2CC[C@@]3(CC[C@@H](/C=C/[C@@H](C)C4CC(C)=C[C@]5(O4)O[C@H](C[C@@](C)(O)C(=O)O)CCC5O)O3)OC2[C@@H]1O (stereo partly drawn),active: 0.013 µM,
CN1CC[C@@]2(CCCN(C(=O)c3ccco3)C2)C1,,inactive: 2.81%
COc1ccc(/C=C/C(=O)NC(=S)N2C[C@H]3C[C@H](C2)c2cccc(=O)n2C3)cc1OC,,inactive: -0.0105%
COC(=O)C1=C(c2ccc(C(C)=O)cc2)C[C@@H]2CC[C@H]1N2C(=O)N1CCCC1,"inconclusive [inhibitor, single point]",
COC(=O)C1=C(c2ccc(OCc3ccccc3)c(F)c2)C[C@@H]2CC[C@H]1N2C,"inconclusive [inhibitor, single point]",
CCC(=O)O[C@H]1CC[C@H]2[C@@H]3CCC4=CC(=O)CC[C@]4(C)[C@H]3CC[C@]12C,"inconclusive [inhibitor, single point]",
N#CCCCCC#N,"inconclusive [inhibitor, single point]",
O=C1NC[C@H](CCCCN2C[C@H](Cc3ccccc3)N(CCC3CCCCC3)C(=O)C2=O)N(CCC2CCCCC2)C1=O,"inconclusive [inhibitor, single point]",
CCOC(=O)C(O)(c1ccc(N(CC)C(=O)COc2ccccc2)cc1)C(F)(F)F (stereo not drawn),"inconclusive [inhibitor, single point]",
C=C(C)CC1(CC)C(=O)NC(=S)NC1=O,,inactive: 8.47%
Cc1c(C)c2c(c(C)c1OC(=O)CCC(=O)OCCO)CC[C@@](C)(CCC[C@H](C)CCC[C@H](C)CCCC(C)C)O2,active: 10.6 µM,
Cc1ccc(-n2c(/C=C/c3ccccn3)nc3ccccc3c2=O)cc1,"inconclusive [inhibitor, single point]",
CCCN(CCc1cccs1)[C@H]1CCc2c(O)cccc2C1,"inconclusive [inhibitor, single point]",
CC(C)(C)C(=O)N1Cc2ccccc2-n2nncc2C1,,inconclusive: -30.6% [inhibitor]
CCOC(=O)C1(CCc2ccccc2)CCN(C(C)CSC)CC1 (stereo not drawn),"inconclusive [inhibitor, single point]",
COc1cc2c(cc1OC)C13CCN4CC5=CCOC6CC(=O)N2C1C6C5C3C4 (stereo not drawn) (tested in a mixture with another compound),active: 13 µM,
